This passage reports GI50 and TGI results from PubChem BioAssay (NCI).

Each structure is given as a SMILES string.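 In this assay, cells in 96-well plates receive the compound at five concentrations for 48 hours. Endpoints are linearly interpolated between the surrounding concentrations. GI50 = concentration required for 50% inhibition of growth. TGI: concentration producing complete growth inhibition.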

The experiment has as its system NCI-H322M lung. Description: growth of human tumour cells (NCI), 48 h.

Turning to `CC(=O)Oc1ccccc1C(=O)Nc1ccc(C(=O)/C=C/c2ccncc2)cc1`, the GI50 is above 100 µM and the TGI was above 100 µM.

In the case of `CC(C)(C)Nc1nc2c(OCCc3ccccc3)cccn2c1-c1ccccc1Cl`, the GI50 was 8.45 µM and the TGI turned out to be 22.4 µM.

`CCN(CC)c1ccc(/C=N/NC(=O)c2ccc(S(N)(=O)=O)cc2)cc1`: the GI50 was 0.343 µM and the TGI came out at 25.5 µM.
